# In the supplement of paper PMC8728848:
# This is one part of the list.
# B1: GS13455A-bfa-343-25-343 (Bacteroides fragilis) (protein)
# chain: KDEIQIVDQDTSWQMDNKYIEEDIREQLGIDPFTDLVYLGYYGNPYTQLEAINDLVNTTLVGKNELSFKVKVTKPYKEDIKVNLMKEDKLVTDFPEMAEGIPLFPSENCTFEGGVLKAGELETTVKLTLKDVEKLNNLSGYVMAIKLTMEGSHEHLAIARTRSSYFVKLNLSIRLDNIDSSNKKIEGKGFNKEISFKSDIRPDKLGSLNDGNFTANNWYTSNANNYLTIILPEKQSLKGFRLDTNTSPSGSYMLKSCRVMVETPDGNWVNHGVFDRKSMDGIAYISFKKPVECTKVRFENMMAFNGRFSVDVNEVTAFR
# Experiments:
# Assay in all cases: glycan array binding signal (z-score within array); higher = stronger binding
# Settings in all cases: glycan notation: IUPAC condensed, linker removed
# [1] = target: Neu5Ac(a2-3)Gal(b1-3)[Fuc(a1-4)]GlcNAc
# Summary of the method: (§1)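 Glycan array data came from 3228 arrays in the Consortium for Functional Glycomics database, and only arrays with an available protein sequence were kept. Glycan names were put into IUPAC-condensed notation, and columns mapping to the same glycan were averaged. The binding signal is a within-array Z-score, averaged across arrays of one protein sequence run at different concentrations or buffers and across linkers. A negative Z-score can be read as non-binding.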
# [2] = target: Neu5Ac(a2-3)Gal(b1-3)[Fuc(a1-4)]GlcNAc(b1-3)Gal(b1-3)[Fuc(a1-4)]GlcNAc
# Summary of the method: as §1
# [3] = target: Neu5Ac(a2-3)Gal(b1-3)[Fuc(a1-4)]GlcNAc(b1-3)Gal(b1-4)[Fuc(a1-3)]GlcNAc
# Summary of the method: as §1
# [4] = target: Neu5Ac(a2-3)Gal(b1-3)[GlcNAc(b1-6)]GalNAc
# Summary of the method: as §1
# [5] = target: Neu5Ac(a2-3)Gal(b1-3)[Neu5Ac(a2-6)]GalNAc
# Summary of the method: as §1
# [6] = target: Neu5Ac(a2-3)Gal(b1-3)[Neu5Ac(a2-6)]GlcNAc(b1-3)[Fuc(a1-3)[Gal(b1-4)]GlcNAc(b1-6)]Gal(b1-4)Glc
# Summary of the method: as §1
# [7] = target: Neu5Ac(a2-3)Gal(b1-3)]Neu5Ac(a2-3)Gal(b1-4)]GlcNAc
# Summary of the method: as §1
# Neu5Ac(a2-3)Gal(b1-4)Glc = target: Neu5Ac(a2-3)Gal(b1-4)Glc
# Summary of the method: as §1
# [8] = target: Neu5Ac(a2-3)Gal(b1-4)GlcNAc
# Summary of the method: as §1
# [9] = target: Neu5Ac(a2-3)Gal(b1-4)GlcNAc(b1-2)Man
# Summary of the method: as §1
# [10] = target: Neu5Ac(a2-3)Gal(b1-4)GlcNAc(b1-2)Man(a1-3)[GlcNAc(b1-4)][Neu5Ac(a2-3)Gal(b1-4)GlcNAc(b1-2)Man(a1-6)]Man(b1-4)GlcNAc(b1-4)GlcNAc
# Summary of the method: as §1
# [11] = target: Neu5Ac(a2-3)Gal(b1-4)GlcNAc(b1-2)Man(a1-3)[Neu5Ac(a2-3)Gal(b1-4)GlcNAc(b1-2)Man(a1-6)]Man(b1-4)GlcNAc(b1-4)GlcNAc
# Summary of the method: as §1
# [12] = target: Neu5Ac(a2-3)Gal(b1-4)GlcNAc(b1-2)Man(a1-3)[Neu5Ac(a2-3)Gal(b1-4)GlcNAc(b1-2)Man(a1-6)]Man(b1-4)GlcNAc(b1-4)[Fuc(a1-6)]GlcNAc
# Summary of the method: as §1
# [13] = target: Neu5Ac(a2-3)Gal(b1-4)GlcNAc(b1-2)Man(a1-3)[Neu5Ac(a2-6)Gal(b1-4)GlcNAc(b1-2)Man(a1-6)]Man(b1-4)GlcNAc(b1-4)GlcNAc
# Summary of the method: as §1
# [14] = target: Neu5Ac(a2-3)Gal(b1-4)GlcNAc(b1-2)[Neu5Ac(a2-3)Gal(b1-4)GlcNAc(b1-4)]Man(a1-3)[GlcNAc(b1-4)][Neu5Ac(a2-3)Gal(b1-4)GlcNAc(b1-2)[Neu5Ac(a2-3)Gal(b1-4)GlcNAc(b1-6)]Man(a1-6)]Man(b1-4)GlcNAc(b1-4)GlcNAc
# Summary of the method: as §1
# [15] = target: Neu5Ac(a2-3)Gal(b1-4)GlcNAc(b1-2)[Neu5Ac(a2-3)Gal(b1-4)GlcNAc(b1-4)]Man(a1-3)[GlcNAc(b1-4)][Neu5Ac(a2-3)Gal(b1-4)GlcNAc(b1-4)Man(a1-6)]Man(b1-4)GlcNAc(b1-4)GlcNAc
# Summary of the method: as §1
# [16] = target: Neu5Ac(a2-3)Gal(b1-4)GlcNAc(b1-2)[Neu5Ac(a2-3)Gal(b1-4)GlcNAc(b1-6)]Man(a1-6)[Neu5Ac(a2-3)Gal(b1-4)GlcNAc(b1-2)Man(a1-3)]Man(b1-4)GlcNAc(b1-4)GlcNAc
# Summary of the method: as §1
# [17] = target: Neu5Ac(a2-3)Gal(b1-4)GlcNAc(b1-2)[Neu5Ac(a2-3)Gal(b1-4)GlcNAc(b1-6)]Man(a1-6)[Neu5Ac(a2-3)Gal(b1-4)GlcNAc(b1-2)Man(a1-3)][GlcNAc(b1-4)]Man(b1-4)GlcNAc(b1-4)GlcNAc
# Summary of the method: as §1
# [18] = target: Neu5Ac(a2-3)Gal(b1-4)GlcNAc(b1-3)Gal
# Summary of the method: as §1
# [19] = target: Neu5Ac(a2-3)Gal(b1-4)GlcNAc(b1-3)Gal(b1-3)GlcNAc
# Summary of the method: as §1
# [20] = target: Neu5Ac(a2-3)Gal(b1-4)GlcNAc(b1-3)Gal(b1-4)GlcNAc
# Summary of the method: as §1
# [21] = target: Neu5Ac(a2-3)Gal(b1-4)GlcNAc(b1-3)Gal(b1-4)GlcNAc(b1-2)Man(a1-3)[Neu5Ac(a2-3)Gal(b1-4)GlcNAc(b1-3)Gal(b1-4)GlcNAc(b1-2)Man(a1-6)]Man(b1-4)GlcNAc(b1-4)GlcNAc
# Summary of the method: as §1
# [22] = target: Neu5Ac(a2-3)Gal(b1-4)GlcNAc(b1-3)Gal(b1-4)GlcNAc(b1-3)Gal(b1-4)GlcNAc
# Summary of the method: as §1
# [23] = target: Neu5Ac(a2-3)Gal(b1-4)GlcNAc(b1-3)Gal(b1-4)GlcNAc(b1-3)Gal(b1-4)GlcNAc(b1-2)Man(a1-3)[Neu5Ac(a2-3)Gal(b1-4)GlcNAc(b1-3)Gal(b1-4)GlcNAc(b1-3)Gal(b1-4)GlcNAc(b1-2)Man(a1-6)]GalNAc
# Summary of the method: as §1
# [24] = target: Neu5Ac(a2-3)Gal(b1-4)GlcNAc(b1-3)Gal(b1-4)GlcNAc(b1-3)GalNAc
# Summary of the method: as §1
# [25] = target: Neu5Ac(a2-3)Gal(b1-4)GlcNAc(b1-3)Gal(b1-4)GlcNAc(b1-3)[Neu5Ac(a2-3)Gal(b1-4)GlcNAc(b1-3)Gal(b1-4)GlcNAc(b1-6)]GalNAc
# Summary of the method: as §1
# [26] = target: Neu5Ac(a2-3)Gal(b1-4)GlcNAc(b1-3)Gal(b1-4)GlcNAc(b1-6)[Gal(b1-3)]GalNAc
# Summary of the method: as §1
# [27] = target: Neu5Ac(a2-3)Gal(b1-4)GlcNAc(b1-3)Gal(b1-4)[Fuc(a1-3)]GlcNAc
# Summary of the method: as §1
# [28] = target: Neu5Ac(a2-3)Gal(b1-4)GlcNAc(b1-3)GalNAc
# Summary of the method: as §1
# [29] = target: Neu5Ac(a2-3)Gal(b1-4)GlcNAc(b1-3)[Neu5Ac(a2-3)Gal(b1-4)GlcNAc(b1-6)]GalNAc
# Summary of the method: as §1
binder,measurement,setting,value
B1,glycan array binding signal (z-score),[1],0.492
same,glycan array binding signal (z-score),[2],0.457
same,glycan array binding signal (z-score),[3],0.631
same,glycan array binding signal (z-score),[4],-0.522
same,glycan array binding signal (z-score),[5],-0.464
same,glycan array binding signal (z-score),[6],-0.225
same,glycan array binding signal (z-score),[7],0.077
same,glycan array binding signal (z-score),Neu5Ac(a2-3)Gal(b1-4)Glc,0.051
same,glycan array binding signal (z-score),[8],-0.152
same,glycan array binding signal (z-score),[9],-0.205
same,glycan array binding signal (z-score),[10],-0.237
same,glycan array binding signal (z-score),[11],-0.186
same,glycan array binding signal (z-score),[12],0.466
same,glycan array binding signal (z-score),[13],-0.186
same,glycan array binding signal (z-score),[14],-0.395
same,glycan array binding signal (z-score),[15],-0.715
same,glycan array binding signal (z-score),[16],-0.056
same,glycan array binding signal (z-score),[17],0.236
same,glycan array binding signal (z-score),[18],-0.573
same,glycan array binding signal (z-score),[19],0.34
same,glycan array binding signal (z-score),[20],-0.123
same,glycan array binding signal (z-score),[21],0.877
same,glycan array binding signal (z-score),[22],-0.592
same,glycan array binding signal (z-score),[23],0.225
same,glycan array binding signal (z-score),[24],-0.534
same,glycan array binding signal (z-score),[25],0.259
same,glycan array binding signal (z-score),[26],-0.102
same,glycan array binding signal (z-score),[27],-0.308
same,glycan array binding signal (z-score),[28],-0.51
same,glycan array binding signal (z-score),[29],1.14
